Test results reported in PubChem BioAssay (NCATS).
Inconclusive means that the source gave no clear call. Such entries were picked first, then a sample of the others. Where the call is inconclusive, the potency comes from a doubtful curve fit. The source made the active and inactive calls. Calls come from the whole dose curve; as a rule, active = well fitted inhibition curve with a large enough effect; inconclusive = small, poorly fitted or top-dose-only effect; inactive = no such curve, though single readings can be large or run the other way.

molecular target: Retinaldehyde dehydrogenase 3 (Homo sapiens) (UniProt P47895); experiment: qHTS for Inhibitors of the Aldehyde Dehydrogenase Family (ALDH1A3) Primary screen (AID 2061315); conditions: ALDH inhibition qHTS; activity change, negative = inhibition: at 56 µM (top of the series) unless noted;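 for activity change, negative = inhibition: plate controls were DMSO vehicle for no effect and reference inhibitor for full effect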
Potency is the fitted concentration of half-maximal effect; tags give direction and shape of the fitted curve.

Row | Compound | Potency | activity change, negative = inhibition
1 | Cc1cc(=O)oc2c(C=O)c(O)ccc12 | inconclusive: 39.8 µM [inhibitor, single point] | –
2 | COc1ccc2nc(-c3ccc(F)cc3)sc2c1 | inconclusive: 3.16 µM [inhibitor, full curve] | –
3 | COc1ccc(-c2nc3ccccc3s2)cc1 | inconclusive: 1.26 µM [inhibitor, full curve] | –
4 | Nc1ncnc2c1ncn2[C@@H]1O[C@H](CN[S+](=O)([O-])NC(=O)c2cccc(-c3noc(-c4ccccc4F)n3)c2)[C@@H](O)[C@H]1O | inconclusive: 0.562 µM [inhibitor, full curve, poor fit] | –
5 | C=C[C@H]1[C@H](O[C@@H]2O[C@H](CO)[C@@H](O)[C@H](O)[C@H]2O)OC=C(C(=O)OC)[C@H]1CCOC(=O)c1cc(O)c(O)c(O)c1 | inconclusive: 10 µM [inhibitor, partial curve, poor fit] | –
6 | Cc1c(C(=O)N(C)CC2CCCO2)[nH]c2c1C(=O)CC(c1ccco1)C2 (stereo not given) | inconclusive: 15.8 µM [inhibitor, partial curve] | –
7 | CN1CCN(c2nn3c(=O)c4ccccc4nc3s2)CC1 | inconclusive: 4.47 µM [inhibitor, full curve] | –
8 | CC(=O)N1CCN(c2ccc(NCc3ccc(C)cc3)cc2)CC1 | inconclusive: 1.41 µM [inhibitor, partial curve, poor fit] | –
9 | O=C(O)c1cccc(-c2noc(-c3cccc(C(F)(F)F)c3)n2)c1 | inconclusive: 0.631 µM [inhibitor, full curve] | –
10 | CCOC(=O)c1ccc(O)c2ncc(N3CCC(C(=N)N)CC3)cc12 | inconclusive: 7.08 µM [inhibitor, full curve, poor fit] | –
11 | Cc1ccccc1C#Cc1ccc(CCC(=O)O)cc1 | inconclusive: 15.8 µM [inhibitor, partial curve] | –
12 | OCc1cccc(-c2noc(-c3ccccc3F)n2)c1 | inconclusive: 14.1 µM [inhibitor, partial curve] | –
13 | COc1cc2c3c(cc4ccccc4c3c1O)NC2=O | inconclusive: 15.8 µM [inhibitor, partial curve] | –
14 | O=C(O)c1ccc(-c2noc(-c3cccc(F)c3)n2)cc1 | inconclusive: 1 µM [inhibitor, full curve] | –
15 | Cc1cc(C)nc(NC(=S)N2CCN(c3cncc4ccccc34)CC2)c1 | – | inactive: -20.4%
